Measurements: a compilation of properties of binary mixtures (doi:10.1021/acs.jced.0c00495)
Some of these densities may be calculated back from excess volumes.

Assay: xn = mol fraction of the nth substance listed
Details: 101.3 kPa

Nc1ccccc1 + CCCCCCCCn1cc[n+](C)c1.F[B-](F)(F)F
x2 = 0
Details | mass density [kg/m3]
293.15 K | 1021.7
298.15 K | 1017.4
303.15 K | 1013
308.15 K | 1008.7
318.15 K | 1000
323.15 K | 995.6

Nc1ccccc1 + CCCC[n+]1ccn(C)c1.F[B-](F)(F)F
mass density [kg/m3]
Details | x2 = 0 | x2 = 0.0925 | x2 = 0.2022 | x2 = 0.2995 | x2 = 0.4002 | x2 = 0.4982 | x2 = 0.5953 | x2 = 0.6935 | x2 = 0.7904 | x2 = 0.9191
293.15 K | – | 1059.3 | – | 1118.1 | 1137.2 | – | – | – | 1184.9 | 1196.4
298.15 K | 1017.4 | – | 1090.6 | 1114.8 | 1134 | – | 1161.3 | 1172.5 | 1182.1 | 1193.8
303.15 K | – | 1051.9 | 1087.1 | 1111.2 | 1130.5 | 1145.5 | 1158 | – | 1178.8 | 1190.5
308.15 K | 1008.7 | 1048.1 | 1083.3 | – | 1126.6 | – | 1154.2 | 1165.4 | 1175.1 | 1186.8
313.15 K | – | 1044.1 | 1079.4 | 1103.3 | – | 1137.7 | – | – | – | 1182.8
318.15 K | 1000 | 1040.3 | 1075.7 | 1099.9 | 1119 | – | 1147 | – | 1168.1 | 1179.6
323.15 K | 995.6 | 1036.7 | 1072.2 | – | – | 1131.3 | 1143.6 | 1154.8 | 1164.8 | 1176.5
